Measured values: US20260216365A1, “ANTIBODY-DRUG CONJUGATES AGAINST THE RECEPTOR TYROSINE KINASE EPHA5” (Rutgers, The State University of New Jersey, priority 2021, published 2026)

How the values were obtained:
[1] = Thermal ramp stability (UNcle, Sypro Orange fluorescence and static light scattering); format: physicochemical; conditions: among the chimeric and six lead humanized variants
Text: Thermal ramp stability experiments (Tm and Tagg) are well established methods for ranking proteins and formulations for stability. A protein's denaturation profile provides information about its thermal stability and represents a structural ‘fingerprint’ for assessing structural and formulation buffer modifications. A widely used measure of the thermal structural stability of a protein is the temperature at which it unfolds from the native state to a denatured state. For many proteins, this unfolding process occurs over a narrow temperature range and the mid-point of this transition is termed ‘melting temperature’ or ‘Tm’. To determine the melting temperature of a protein, UNcle measures the fluorescence of Sypro Orange (which binds to exposed hydrophobic regions of proteins) as the protein undergoes conformational changes.
Samples for each variant were formulated in PBS and Sypro Orange at a final concentration of 1 mg/mL. 9 μL of each sample mixture was loaded in duplicate into UNi microcuvettes. Samples were subjected to a thermal ramp from 25-95° C., with a ramp rate of 0.3° C./minute and excitation at 473 nm. Full emission spectra were collected from 250-720 nm, and the area under the curve between 510-680 nm was used to calculate the inflection points of the transition curves (Tonset and Tm). Monitoring of static light scattering (SLS) at 473 nm allowed the detection of protein aggregation, and Tagg (onset of aggregation) was calculated from the resulting SLS profiles. Thermal stability values determined lie in a broad range from 57.9 to 69.6° C. (Tm1), 55.1 to 65.2° C. (Tonset) and 65.6 to 70.2° C. (Tagg) with the humanized leads generally showing improved profiles when compared to the chimeric antibody. […] All humanized antibodies appear to have a higher Tm1, Tonset and Tagg compared to the chimeric antibody.

[2] = test system: Membrane Proteome Array, 6,000 human membrane protein clones; assay: Membrane Proteome Array (MPA) specificity screen; format: binding; conditions: antibody at 20 μg/ml, HEK-293T
Experimental: Membrane Proteome Array: Membrane Proteome Array (MPA) screening was conducted at Integral Molecular. The MPA is a protein library composed of 6,000 human membrane protein clones, each overexpressed in live cells from expression plasmids. Each clone was individually transfected in separate wells of a 384-well plate followed by a 36 h incubation (Tucker et al., 2018). Cells expressing each individual MPA protein clone were arrayed in duplicate in a matrix format for high-throughput screening. Before screening on the MPA, the test antibody concentration for screening was determined on cells expressing positive (membrane-tethered Protein A) and negative (mock-transfected) binding controls, followed by detection by flow cytometry using a fluorescently-labeled secondary antibody. Each test antibody was added to the MPA at the predetermined concentration, and binding across the protein library was measured on an Intellicyt iQue using a fluorescently-labeled secondary antibody. Each array plate contains both positive (Fc-binding) and negative (empty vector) controls to ensure plate-to-plate reproducibility. […]
To identify antibody binding targets, ~6,000 different membrane proteins were each expressed in individual wells of HEK-293T or QT6 cells arrayed in 384 well plates. […] Non-specific fluorescence was determined to be any value below 3 standard deviations of the mean background value.

[3] = test system: H460, A549 and H1299 human lung carcinoma cells; assay: Incucyte Fabfluor-pH Red antibody internalization, real-time live cell imaging; format: cell-based; conditions: pH-sensitive Fabfluor dye, various concentrations
Experimental: In vitro studies were conducted in which three different Eph5A-expressing target cell lines were incubated with various concentrations of VH5Vk3 or VH4Vk3 antibodies after which internalization of bound antibody was calculated. Antibody internalization was performed with the Incucyte® Human Fabfluor-pH Red Antibody Labeling Dye and the naked VH4Vk3 (FIG. 66) and VH5Vk3 (FIG. 67) human monoclonal antibodies in the following cell lines: H460 human lung carcinoma, A549 human lung carcinoma and H1299 human lung carcinoma. These cell lines express variable levels of EphA5 on the cell surface: H460 (+++)>A549 (++)=H1299 (++). Internalization was visualized and quantified using real-time live cell imaging analysis. The Fabfluor-pH Red Antibody Labeling Dye is sensitive to pH and only emits fluorescence once inside lysosomes in low pH conditions.

[4] = test system: H522, H460, A549 and H1299 cells; assay: Incucyte cytotoxicity, cell confluence over time; format: cell-based, human; conditions: EphA5 expression H522 (++++)>H460 (+++)>A549 (++)=H1299 (++)
[5] = test system: triple-negative invasive ductal carcinoma breast tumor PDX; assay: Patient-derived xenograft (PDX) of triple-negative invasive ductal carcinoma of the breast (Example 4); format: in vivo, mouse; conditions: 5 doses of 10 mg/kg every 7 days; control tumors reached endpoints within 16 days
H522-derived xenograft = H522-derived xenograft model of human lung cancer; conditions: ADC 10 mg/kg i.v. weekly, 3 doses
A549-derived xenograft = A549-derived xenograft model of human lung cancer
H460-derived xenograft = H460-derived xenograft model of human lung cancer; conditions: ADC 10 mg/kg i.v. every 5 days, 3 doses
[6] = ADC 10 mg/kg i.v. weekly, 3 doses, ADC group n=5

| Molecule | ranking by Tagg (SLS profiles) [1] | Identified membrane protein targets: Target gene (HGNC) [2] | internalization and lysosomal trafficking of the naked antibody [3] | ADC-induced cell death (decrease of cell confluence) [4] | tumor growth [5] | change in body weight, before first dose versus termination (H522-derived xenograft) | tumor response (H522-derived xenograft; VH5Vk3 ADC: first study, n=10) | change in body weight, before first dose versus termination (A549-derived xenograft; ADC 10 mg/kg i.v.) | number of tumors with full regression (A549-derived xenograft; [6]) | number of tumors with partial regression (A549-derived xenograft; [6]) | time for which partial regression was sustained (entirety of the study) (A549-derived xenograft; mouse 4) [days] | change in body weight, before first dose versus termination (H460-derived xenograft) | number of tumors with full regression (H460-derived xenograft; n=9 (MMAE ADC), n=8 (SN-38 ADC)) |
| --- | --- | --- | --- | --- | --- | --- | --- | --- | --- | --- | --- | --- | --- |
| VH4/VK3: humanized anti-EphA5 IgG1/kappa antibody; VH SEQ ID NO:5, VL SEQ ID NO:11; heavy chain SEQ ID NO:38, light chain SEQ ID NO:40 (antibody) heavy: EVQLVESGGGLVQPGGSLKLSCAASGFTFSTFGIHWVRQAPGKGLEWVAYISGASTTIYYADTVKGRFTISRDNSKNTLYLQMNSLRAEDTAVYYCARYGTSFPYGLDYWGQGTLVTVSSASTKGPSVFPLAPSSKSTSGGTAALGCLVKDYFPEPVTVSWNSGALTSGVHTFPAVLQSSGLYSLSSVVTVPSSSLGTQTYICNVNHKPSNTKVDKRV[letters of human IgG1 Fc left out] light: DIVMTQSPDSLAVSLGERATINCKASQSVDYDGDSYMNWYQQKPGKAPKLLIYGASNLESGIPDRFSGSGSGTDFTLTISRLEPEDAAVYYCQQSNEDPFTFGQGTKLEIKRTVAAPSVFIFPPSDEQLKSGTASVVCLLNNFYPREAKVQWKVDNALQSGNSQESVTEQDSKDSTYSLSSTLTLSKADYEKHKVYACEVTHQGLSSPVTKSFNRGEC | highest Tagg values | EPHA5 | receptor-mediated internalization and trafficking |  |  |  |  |  |  |  |  |  |  |
| VH4Vk3-ThioBridge®-VCP-MMAE: VH4Vk3 antibody, ThioBridge disulfide rebridging, Val-Cit-PAB linker, MMAE payload, DAR 4; called ADC2 only in Example 5 (conjugate) heavy: EVQLVESGGGLVQPGGSLKLSCAASGFTFSTFGIHWVRQAPGKGLEWVAYISGASTTIYYADTVKGRFTISRDNSKNTLYLQMNSLRAEDTAVYYCARYGTSFPYGLDYWGQGTLVTVSSASTKGPSVFPLAPSSKSTSGGTAALGCLVKDYFPEPVTVSWNSGALTSGVHTFPAVLQSSGLYSLSSVVTVPSSSLGTQTYICNVNHKPSNTKVDKRV[letters of human IgG1 Fc left out] light: DIVMTQSPDSLAVSLGERATINCKASQSVDYDGDSYMNWYQQKPGKAPKLLIYGASNLESGIPDRFSGSGSGTDFTLTISRLEPEDAAVYYCQQSNEDPFTFGQGTKLEIKRTVAAPSVFIFPPSDEQLKSGTASVVCLLNNFYPREAKVQWKVDNALQSGNSQESVTEQDSKDSTYSLSSTLTLSKADYEKHKVYACEVTHQGLSSPVTKSFNRGEC |  |  |  | increasing amounts of ADC induced cell death which is dependent on the levels of expression of the target EphA5 | little measurable tumor growth | no significant changes in body weight | Full regression was observed for all ADC-treated tumors | no significant changes in body weight | 4 | One | 32 | no changes in body weight | 2 |
